Assay results taken from PubChem BioAssay AID1159614 (National Center for Advancing Translational Sciences (NCATS), 2016).
Hit rate of the full screen: of about 45,000 compounds, about 65 (0.1%) were called active. Calls follow the shape of the dose curve; as a rule, active = well fitted activation curve with a large enough effect; inconclusive = small, poorly fitted or top-dose-only effect; inactive = no such curve, though single readings can be large or run the other way. This is one part of the list.

target: Galactocerebrosidase (Homo sapiens) (UniProt P54803); assay: A Novel Cell-Based Assay to Identify Small Molecules for B -Galactocerebrosidase; details: 145M-Twi-hGALC-G270D cells (Twitcher mouse brain line with human GALC G270D), HMU-beta-Gal fluorescence, 48 h; series mostly up to 57.5 µM; activation: at the top concentration; also: nearly all actives have a fitted effect of over 65% in size; as to activation: 0% is about no effect
Chain of UniProt P54803 (P54803 whole entry, looked up): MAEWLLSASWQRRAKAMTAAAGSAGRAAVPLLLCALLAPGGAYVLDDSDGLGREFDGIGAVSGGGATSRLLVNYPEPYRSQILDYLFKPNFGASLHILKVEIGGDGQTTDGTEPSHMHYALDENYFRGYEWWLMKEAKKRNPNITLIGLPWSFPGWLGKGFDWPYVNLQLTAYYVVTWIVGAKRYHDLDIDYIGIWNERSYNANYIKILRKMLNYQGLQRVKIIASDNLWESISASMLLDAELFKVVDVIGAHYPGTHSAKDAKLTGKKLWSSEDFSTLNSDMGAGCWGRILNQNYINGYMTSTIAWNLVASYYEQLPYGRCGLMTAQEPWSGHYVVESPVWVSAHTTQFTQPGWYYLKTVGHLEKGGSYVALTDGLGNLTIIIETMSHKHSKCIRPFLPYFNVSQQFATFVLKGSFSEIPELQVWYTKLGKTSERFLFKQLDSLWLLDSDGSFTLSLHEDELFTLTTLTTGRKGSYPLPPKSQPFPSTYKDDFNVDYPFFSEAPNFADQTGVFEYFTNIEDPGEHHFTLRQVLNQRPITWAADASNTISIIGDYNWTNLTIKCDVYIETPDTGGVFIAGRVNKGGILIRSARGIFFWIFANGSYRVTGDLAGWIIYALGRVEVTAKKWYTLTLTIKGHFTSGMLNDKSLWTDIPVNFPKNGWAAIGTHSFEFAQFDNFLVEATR
Outline: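 Live 145M-Twi cells (Twitcher mouse brain-derived, GALC-null) stably expressing human GALC-G270D, with a wild-type GALC line, were compound-treated. Residual GALC activity was then read as fluorescence from 0.1 mM final HMU-β-gal at pH 5.2; higher signal means activation.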
Potency is read from the fitted curve at half-maximal effect.

| Structure (SMILES) | activation | Potency |
| --- | --- | --- |
| CCCNC(=O)NS(=O)(=O)c1ccc(Cl)cc1 | inactive: -10.8% |  |
| CCc1ccc(CNC(=O)Cn2nc(-c3ccc(C)cc3)ccc2=O)cc1 | inactive: -8.44% |  |
| COc1ccccc1N1CCN(C(=O)CCS(=O)(=O)c2ccc3c(c2)oc(=O)n3C)CC1 | inactive: -2.15% |  |
| Cc1ccc(N2CCN(C(=O)c3cc4cc5ccc(C)cc5nc4s3)CC2C)cc1 (stereo not drawn) | inactive: -8.11% |  |
| Fc1ccc(-n2ncc3c(Nc4ccc5c(c4)OCCO5)ncnc32)cc1 | inactive: -5.79% |  |
| Cc1ccc(Nc2sc(C(=O)c3ccccc3)c(N)c2S(=O)(=O)c2ccccc2)cc1Cl | inactive: -18.5% |  |
| CCOC(=O)c1nc(Nc2ccc(C(=O)OC(C)C)cc2)c2ccccc2n1 | inactive: -7.21% |  |
| COc1ccccc1NC(=O)c1oc2ccccc2c1NC(=O)Cc1ccccc1 | inactive: -19.3% |  |
| COc1ccc(-c2noc(CSc3nnc(C)n3-c3cccc(C)c3)n2)cc1 | inactive: -20.5% |  |
| COc1ccc(O)c(C2=Nc3ccccc3N=C(c3ccccc3)C2)c1 | inactive: -3.11% |  |
| COc1cc(C(=O)NCCc2csc(-c3ccc(Cl)cc3)n2)cc(OC)c1OC | inactive: -5.39% |  |
| O=C(CN1C(=O)CC(c2ccccc2)=Nc2ccccc21)Nc1ccc(Br)cc1 | inactive: -14.8% |  |
| CNC(=O)c1ccc2c(c1)N(Cc1cc(C)ccc1C)C(=O)c1ccccc1S2 | inactive: -16.2% |  |
| CCCN1CCN(C(=O)Cn2c(-c3cccs3)cc3cc(F)ccc32)CC1 | inactive: 2.25% |  |
| Cc1ccc2c(c1)N(C(=O)Nc1cccc3c1CCCC3)CCO2 | inactive: -16.7% |  |
| O=C(NCCc1ccccc1)c1ccc(Nc2nc3ccccc3n3nnnc23)cc1 | inactive: -3.43% |  |
| Cc1cccc(CCNC(=O)c2cc3c(s2)-c2c(C)cccc2OC3)c1 | inactive: -7.59% |  |
| COc1ccc(CNC(=O)c2ccc(-c3nc(CSc4ccc(C)cc4)c(C)o3)cc2)c(OC)c1 | inactive: -30% |  |
| COc1ccc(C2c3c(n(C)c4ccccc34)C(=O)N2CC(=O)Nc2cccc(Cl)c2)cc1 (stereo not drawn) | inactive: -19.5% |  |
| CCOC(=O)c1c(NC(=O)CSc2cn(CCNC(=O)c3ccc(OC)cc3)c3ccccc23)sc2c1CCCC2 | inactive: -25.4% |  |
| CCc1ccc(S(=O)(=O)c2cn(C)c3cc(N4CCCC4)c(F)cc3c2=O)cc1 | inactive: -14.4% |  |
| COc1ccc(C(=O)Nc2ccc3c(c2)CCCN3S(=O)(=O)c2ccc(C)cc2)c(OC)c1 | inactive: 11.2% |  |
| CN(Cc1ccccc1)c1ccc(-c2nc(-c3ccncc3)no2)cc1[N+](=O)[O-] | inactive: -31.8% |  |
| Cc1cc(C)cc(C(=O)NCC(c2ccc(N(C)C)cc2)N2CCCC2)c1 (stereo not drawn) | inactive: -12.7% |  |
| O=C(NCCC1=CCCCC1)C1CCN(C(=O)N2CCOc3ccc(Cl)cc32)CC1 | inactive: -10.6% |  |

| Structure (SMILES) | activation | Potency |
| --- | --- | --- |
| COc1cccc(NC(=O)C2CCCN(S(=O)(=O)c3cccc4nonc34)C2)c1 (stereo not drawn) | inactive: -8.93% |  |
| Cc1cn2c(=O)c(S(=O)(=O)Nc3ccc(F)cc3F)c(C)nc2s1 | inactive: -5.58% |  |
| CCOc1ccc(C(=O)NCCc2csc(-c3cccc(F)c3)n2)cc1OCC | inactive: -9.48% |  |
| CCOC(=O)CC(NC(=O)CCc1c(C)nc2ncnn2c1C)c1ccc(C)cc1 (stereo not drawn) | inactive: -14.4% |  |
| COC(=O)c1nnn(-c2ccc(Br)cc2)c1C(=O)OC | inactive: -21.7% |  |
| O=C(NCc1ccco1)c1ccc2c(c1)N(Cc1ccc(Cl)cc1)C(=O)c1ccccc1S2(=O)=O | inactive: -3.95% |  |
| O=C(NCc1ccc(Cl)cc1)c1ccc(Cn2c(=O)c3cccn3c3cccnc32)cc1 | inactive: -0.432% |  |
| COCCCNC(=O)c1ccc2c(c1)N(Cc1ccccc1F)C(=O)c1ccccc1S2=O (stereo not drawn) | inactive: 0.135% |  |
| CCOc1ccc(N2C(=O)c3[nH]nc(-c4ccc(OC)cc4)c3C2c2cccs2)cc1 (stereo not drawn) | inactive: -8.77% |  |
| COc1ccc(-c2nnc(SCC(=O)Nc3ccc(C)c(C)c3)s2)cc1 | inactive: -14.2% |  |
| Cc1ccc(C)c(Nc2nnc(-c3ccc(C)c(S(=O)(=O)NCC4CCCO4)c3)c3ccccc23)c1 (stereo not drawn) | inactive: -22.8% |  |
| O=C(Cn1c(=O)n(Cc2nc(-c3ccccc3)no2)c(=O)c2ccccc21)Nc1cccc(Cl)c1 | inactive: -19.4% |  |
| COc1ccc(S(=O)(=O)N2CCN(Cc3nc4ccc(C)cc4o3)CC2)cc1 | inactive: -9.46% |  |
| O=C1CCc2cc(S(=O)(=O)NC(C(=O)Nc3cccc(F)c3)c3ccccc3)ccc2N1 (stereo not drawn) | inactive: -12.2% |  |
| COc1ccc(-c2c(C)c3ccc(O)c(CN4CCCC(C)C4)c3oc2=O)cc1OC (stereo not drawn) |  | active: 20 µM |
| CCOc1ccc(NC(=O)CSc2oc(-c3ccccc3)nc2S(=O)(=O)c2ccc(Cl)cc2)cc1 | inactive: -8.81% |  |
| COC(=O)c1cc(NC(=O)c2cc3sccc3n2Cc2ccc(Cl)cc2)cc(C(=O)OC)c1 | inactive: -11.7% |  |
| CCOCc1cc(CN2CCN(c3ccccc3OC)CC2)c(O)c2ncccc12 | inactive: -13.2% |  |
| CCc1ccccc1NC(=O)CCCN1C(=O)CCn2nc(-c3cn(C)c4ccccc34)cc21 | inactive: -16.3% |  |
| COc1cc(Nc2nc(SCc3ccccc3Cl)nc3ccccc23)cc(OC)c1 | inactive: 2.73% |  |
| COc1cccc(NC(=O)c2oc3ccccc3c2NC(=O)C2CCCCC2)c1 | inactive: -8.48% |  |
| COc1ccc(C(=O)/C=C/c2cn(CC(O)CN3CCc4ccccc43)c3ccccc23)cc1 (stereo not drawn) | inactive: 21.1% |  |
| O=C1NC(NS(=O)(=O)c2ccccc2)(C(F)(F)F)C(=O)N1c1ccc(F)cc1 (stereo not drawn) | inactive: -18.2% |  |
| Cc1cc(N2CCC(C(=O)N(CC(C)C)CC(C)C)CC2)n2nc(C)c(-c3ccc(Cl)cc3)c2n1 | inactive: -14.6% |  |
| COc1cc(OC)cc(-c2nc3nc(C)c(CCC(=O)Nc4ccc(C)cc4C)c(C)n3n2)c1 | inactive: -8.19% |  |

| Structure (SMILES) | activation | Potency |
| --- | --- | --- |
| CCN(CC)S(=O)(=O)c1ccc(C(=O)Nc2nc3ccc(Cl)cc3s2)cc1 | inactive: -23.2% |  |
| O=C1CCc2cc(S(=O)(=O)NCc3ccccc3Cl)cc3c2N1CC3 | inactive: -17.2% |  |
| O=S(=O)(c1ccccc1)c1nnn2c1nc(NCc1ccc(Cl)cc1)c1sccc12 | inactive: -16% |  |
| O=C(c1cnn(-c2ccc(F)cc2)c1-n1cccc1)N1CCN(c2ccc(Cl)cc2)CC1 | inactive: -36.9% |  |
| COc1ccccc1C1C=C(c2ccc(C(C)C)cc2)Nc2nnnn21 (stereo not drawn) | inactive: -1.99% |  |
| CSc1ncc(Cl)c(C(=O)N(Cc2ccc(C)cc2)C2CCS(=O)(=O)C2)n1 (stereo not drawn) | inactive: -6.04% |  |
| Cc1cc(C)cc(OCc2cc(=O)n3c(-c4ccccc4)csc3n2)c1 | inactive: -2.09% |  |
| Cc1cccc(CNC(=O)c2ccc3c(c2)c(C)c(C)n3Cc2ccccc2)c1 | inactive: -15.6% |  |
| Fc1ccc(-n2ncc3c(Nc4cccc(Cl)c4)ncnc32)cc1 | inactive: -15.5% |  |
| COc1ccccc1NC(=O)Cn1c(=O)c(CNc2ccccc2)cc2cc(OC)c(OC)cc21 | inactive: -27% |  |
| CCn1nc(C)c2c(-c3ccccc3)cc(=O)n(C(C)C(=O)NCc3ccccc3OC)c21 (stereo not drawn) | inactive: -17.2% |  |
| Cc1ccc(S(=O)(=O)c2nnn3c2nc(NCc2cccs2)c2sccc23)cc1 | inactive: -13.1% |  |
| CCOC(=O)N1CCN(Cc2nc3cc(NC(=O)c4cccc(C)c4)ccc3n2C(C)C)CC1 | inactive: -8.05% |  |
| COc1cccc(NC(=O)Cn2cc(S(=O)(=O)Cc3ccccc3F)c3ccccc32)c1 | inactive: -7.93% |  |
| O=C(CCn1ccc2cc(S(=O)(=O)N3CCCC3)ccc21)NCc1ccccc1F | inactive: 9.99% |  |
| Nc1c(C(=O)Nc2cccc(F)c2)c2ccccn2c1C(=O)c1ccccc1 | inactive: -6.23% |  |
| COc1ccc(CCNc2nc(SCc3ccc(Cl)cc3)nc3ccccc23)cc1OC | inactive: -1.73% |  |
| CCCCCOc1ccccc1/C(=C\SC)n1ccnc1 | inactive: -45.4% |  |
| Cc1cccc(C(=O)Nc2ccc3nc(SCCOc4ccccc4)sc3c2)c1 | inactive: -9.35% |  |
| CN(C)c1ccc(N=NS(=O)(=O)O)cc1 | inactive: -3.11% [at 114 µM] |  |
| COc1ccc(C2C=C(c3ccccc3)Nc3nc(NC(=O)/C=C/c4ccccc4Cl)nn32)cc1 (stereo not drawn) | inactive: -12.5% |  |
| CCc1cnc2c(c1SCC(=O)NCc1ccc(F)cc1)c(=O)n(C)c(=O)n2C | inactive: -16.5% |  |
| Nc1ncc(S(=O)(=O)Nc2ccc(F)cc2F)cn1 | inactive: -6.27% |  |
| Cc1cc(C)c2c(c1)c(C)cc1nnc(SCC(=O)c3ccc(F)cc3)n12 | inactive: -10.9% |  |
| COC(=O)c1ccccc1NC(=O)Cn1c(=O)cc(C)c2c(C)nn(C)c21 | inactive: -4.91% |  |

| Structure (SMILES) | activation | Potency |
| --- | --- | --- |
| CCCCC(=O)N1CCc2cc(OC)c(OC)cc2C1COc1ccc(OC)cc1 (stereo not drawn) | inactive: -16.4% |  |
| COc1ccc(NC(=O)CN2C(=O)COc3ccc(S(=O)(=O)N4CCCCC4)cc32)cc1OC | inactive: 7.2% |  |
| Cc1ccc(C)c(Cn2c(C(=O)O)c(CNCc3cccs3)c3ccccc32)c1 | inactive: -5.18% |  |
| COc1ccc(Cl)cc1NC(=O)Cn1c(=O)c(-c2ccccc2NC(C)=O)nc2ccccc21 | inactive: -10.7% |  |
| CCOC(=O)c1c(NC(=O)COc2cccc(C)c2C)sc(C(C)=O)c1C | inactive: -19.3% |  |
| COc1ccc(N2CCN(C(c3ccccc3F)c3sc4nc(-c5ccco5)nn4c3O)CC2)cc1 (stereo not drawn) | inactive: -5.08% |  |
| CCOc1ccc(C(c2c(O)cc(C)n(Cc3ccco3)c2=O)N2CCCCC2)cc1 (stereo not drawn) | inactive: -20.5% |  |
| Cc1ccc2cccc(NC(=O)C(C)Oc3ccc(Cl)cc3Cl)c2n1 (stereo not drawn) | inactive: -13.3% |  |
| Cc1ccc(NC(=O)CC2Sc3ccc(C(F)(F)F)cc3NC2=O)cc1 (stereo not drawn) | inactive: -20.9% |  |
| COc1cccc(CNS(=O)(=O)c2ccc3c(c2)C(C(C)C)C(=O)N3)c1 (stereo not drawn) | inactive: -11.5% |  |
| COc1ccccc1C(=O)Nc1c(C(=O)Nc2ccccc2F)oc2ccccc12 | inactive: 3.63% |  |
| Cc1cc(-c2ccccc2)n2nc(-c3ccccc3)cc2n1 | inactive: 9.62% |  |
| CN(C)CCNC(=O)C(=O)NCC(c1ccc2c(c1)OCO2)N1CCOCC1 (stereo not drawn) | inactive: -16.8% |  |
| Cc1c(C(=O)O)oc2c1-c1nn(Cc3ccc(Cl)cc3)cc1CC2 | inactive: -20.7% |  |
| Cc1ccc(OCCSc2nc(C)c(Cc3ccccc3)c(=O)[nH]2)cc1 | inactive: 0.697% |  |
| Cc1ncc(CO)c(C=O)c1O | inactive: -10.4% |  |
| CCN1C(=O)c2ccccc2C1Nc1ccc(OCCN2CCCCC2)cc1 (stereo not drawn) | inactive: -4.75% |  |
| Cc1ccn2c(Nc3ccc(C(C)C)cc3)c(-c3cccnc3)nc2c1 | inactive: -8% |  |
| Cc1cc(C)c(NC(=O)CSc2nncn3c2cc2oc(C)cc23)c(C)c1 | inactive: -15.3% |  |
| Cc1cc(Cl)ccc1OCC(=O)N1CCC(c2nc3ccccc3s2)CC1 | inactive: -20.6% |  |
| CC(=O)c1ccc(NC(=O)CN(C)S(=O)(=O)c2cnc[nH]2)cc1 | inactive: -14.2% |  |
| COc1ccc(CNC(=O)Nc2cn(CC(C)C)c(=O)c3ccccc23)cc1 | inactive: -13% |  |
| O=C(Nc1cccc(-c2nc3ccccc3o2)c1)C(F)(F)F | inactive: -2.15% |  |
